# Assay results published in the supplement of paper PMC8728848.
# The list shows a part of the results.
# B1: SBD-G4S3-SBD (protein)
# chain: MASIPSSASVQLDSYNYDGSTFSGKIYVKNIAYSKKVTVVYADGSDNWNNNGNIIAASFSGPISGSNYEYWTFSASVKGIKEFYIKYEVSGKTYYDNNNSANYQVSTGGGGSGGGGSGGGGSEFASIPSSASVQLDSYNYDGSTFSGKIYVKNIAYSKKVTVVYADGSDNWNNNGNIIAASFSGPISGSNYEYWTFSASVKGIKEFYIKYEVSGKTYYDNNNSANYQVST
# Legend:
# Assay in all cases: glycan array binding signal (z-score within array); higher = stronger binding
# Conditions in all cases: glycan notation: IUPAC condensed, linker removed
# [1] = molecular target: Neu5Ac(a2-6)GlcNAc(b1-4)GlcNAc(b1-4)GlcNAc
# Outline: (§1)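 The binding signal is a Z-score computed within each array. Data were drawn from 3228 arrays in the Consortium for Functional Glycomics database, restricted to those with a known protein sequence. Scores were averaged over arrays of the same protein sequence at different concentrations or buffers, and over linkers, and negative values can be taken as non-binding.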
# Neu5Ac(a2-8)Neu5Ac = molecular target: Neu5Ac(a2-8)Neu5Ac
# Outline: as §1
# [2] = molecular target: Neu5Ac(a2-8)Neu5Ac(a2-3)Gal(b1-3)GalNAc(b1-4)[Neu5Ac(a2-3)]Gal(b1-4)Glc
# Outline: as §1
# [3] = molecular target: Neu5Ac(a2-8)Neu5Ac(a2-3)Gal(b1-3)GalNAc(b1-4)[Neu5Ac(a2-8)Neu5Ac(a2-3)]Gal(b1-4)Glc
# Outline: as §1
# [4] = molecular target: Neu5Ac(a2-8)Neu5Ac(a2-3)Gal(b1-4)Glc
# Outline: as §1
# [5] = molecular target: Neu5Ac(a2-8)Neu5Ac(a2-3)Gal(b1-4)GlcNAc
# Outline: as §1
# [6] = molecular target: Neu5Ac(a2-8)Neu5Ac(a2-3)[Gal(b1-3)GalNAc(b1-4)]Gal(b1-4)Glc
# Outline: as §1
# [7] = molecular target: Neu5Ac(a2-8)Neu5Ac(a2-3)[GalNAc(b1-4)]Gal(b1-4)Glc
# Outline: as §1
# [8] = molecular target: Neu5Ac(a2-8)Neu5Ac(a2-8)Neu5Ac
# Outline: as §1
# [9] = molecular target: Neu5Ac(a2-8)Neu5Ac(a2-8)Neu5Ac(a2-3)Gal(b1-4)Glc
# Outline: as §1
# [10] = molecular target: Neu5Ac(a2-8)Neu5Ac(a2-8)Neu5Ac(a2-3)[Gal(b1-3)GalNAc(b1-4)]Gal(b1-4)Glc
# Outline: as §1
# [11] = molecular target: Neu5Ac(a2-8)Neu5Ac(a2-8)Neu5Ac(a2-3)[GalNAc(b1-4)]Gal(b1-4)Glc
# Outline: as §1
# [12] = molecular target: Neu5Ac(a2-8)Neu5Ac(a2-8)Neu5Ac(a2-8)Neu5Ac(a2-3)[GalNAc(b1-4)]Gal(b1-4)Glc
# Outline: as §1
# [13] = molecular target: Neu5Ac(a2-8)Neu5Gc(a2-3)Gal(b1-4)GlcNAc
# Outline: as §1
# [14] = molecular target: Neu5Ac(b2-6)Gal(b1-4)GlcNAc
# Outline: as §1
# Neu5Ac(b2-6)GalNAc = molecular target: Neu5Ac(b2-6)GalNAc
# Outline: as §1
# [15] = molecular target: Neu5Ac9Ac(a2-3)Gal(b1-3)GlcNAc
# Outline: as §1
# [16] = molecular target: Neu5Ac9Ac(a2-3)Gal(b1-4)GlcNAc
# Outline: as §1
# [17] = molecular target: Neu5Ac9Ac(a2-6)Gal(b1-4)GlcNAc
# Outline: as §1
# [18] = molecular target: Neu5Gc(a2-3)Gal(b1-3)GlcNAc
# Outline: as §1
# [19] = molecular target: Neu5Gc(a2-3)Gal(b1-3)[Fuc(a1-4)]GlcNAc
# Outline: as §1
# Neu5Gc(a2-3)Gal(b1-4)Glc = molecular target: Neu5Gc(a2-3)Gal(b1-4)Glc
# Outline: as §1
# [20] = molecular target: Neu5Gc(a2-3)Gal(b1-4)GlcNAc
# Outline: as §1
# [21] = molecular target: Neu5Gc(a2-3)Gal(b1-4)GlcNAc(b1-3)Gal(b1-4)GlcNAc(b1-2)Man(a1-3)[Neu5Gc(a2-3)Gal(b1-4)GlcNAc(b1-3)Gal(b1-4)GlcNAc(b1-2)Man(a1-6)]Man(b1-4)GlcNAc(b1-4)GlcNAc
# Outline: as §1
# [22] = molecular target: Neu5Gc(a2-3)Gal(b1-4)[Fuc(a1-3)]GlcNAc
# Outline: as §1
# [23] = molecular target: Neu5Gc(a2-6)Gal(b1-4)GlcNAc
# Outline: as §1
# Neu5Gc(a2-6)GalNAc = molecular target: Neu5Gc(a2-6)GalNAc
# Outline: as §1
# [24] = molecular target: Neu5Gc(a2-8)Neu5Ac(a2-3)Gal(b1-4)GlcNAc
# Outline: as §1
# [25] = molecular target: Neu5Gc(a2-8)Neu5Gc(a2-3)Gal(b1-4)GlcNAc
# Outline: as §1
# [26] = molecular target: Neu5Gc(a2-8)Neu5Gc(a2-3)Gal(b1-4)GlcNAc(b1-3)Gal(b1-4)GlcNAc
# Outline: as §1
# [27] = molecular target: Neu5Gc(a2-8)Neu5Gc(a2-6)Gal(b1-4)GlcNAc
# Outline: as §1
# [28] = molecular target: Neu5Gc(b2-6)Gal(b1-4)GlcNAc
# Outline: as §1
binder,measurement,setting,value
B1,glycan array binding signal (z-score),[1],-0.376
same,glycan array binding signal (z-score),Neu5Ac(a2-8)Neu5Ac,-0.384
same,glycan array binding signal (z-score),[2],-0.38
same,glycan array binding signal (z-score),[3],-0.339
same,glycan array binding signal (z-score),[4],-0.448
same,glycan array binding signal (z-score),[5],-0.37
same,glycan array binding signal (z-score),[6],-0.36
same,glycan array binding signal (z-score),[7],-0.014
same,glycan array binding signal (z-score),[8],-0.377
same,glycan array binding signal (z-score),[9],-0.406
same,glycan array binding signal (z-score),[10],-0.269
same,glycan array binding signal (z-score),[11],-0.189
same,glycan array binding signal (z-score),[12],0.002
same,glycan array binding signal (z-score),[13],0.676
same,glycan array binding signal (z-score),[14],0.086
same,glycan array binding signal (z-score),Neu5Ac(b2-6)GalNAc,-0.424
same,glycan array binding signal (z-score),[15],-0.341
same,glycan array binding signal (z-score),[16],-0.416
same,glycan array binding signal (z-score),[17],-0.389
same,glycan array binding signal (z-score),[18],-0.335
same,glycan array binding signal (z-score),[19],-0.366
same,glycan array binding signal (z-score),Neu5Gc(a2-3)Gal(b1-4)Glc,-0.367
same,glycan array binding signal (z-score),[20],-0.326
same,glycan array binding signal (z-score),[21],-0.393
same,glycan array binding signal (z-score),[22],-0.388
same,glycan array binding signal (z-score),[23],-0.344
same,glycan array binding signal (z-score),Neu5Gc(a2-6)GalNAc,-0.285
same,glycan array binding signal (z-score),[24],-0.375
same,glycan array binding signal (z-score),[25],-0.422
same,glycan array binding signal (z-score),[26],-0.399
same,glycan array binding signal (z-score),[27],-0.346
same,glycan array binding signal (z-score),[28],-0.28
